Laboratory results: the supplement of paper PMC12645437, “Orthogonal IMiD-Degron Pairs Induce Selective Protein Degradation in Cells” (ACS Chemical Biology, 2025)
Some of the results follow.

B1: Q9UKT9 (peptide)
chain: LCCEICGFTCTQKGNLLRHIKL
B2: Q9UKT9 (peptide)
chain: LDCEICGFPCTQKGNLLRHIKL
B3: Q9UKT9 (peptide)
chain: FGCPICGRQFTQKGNLLRHIKL
B4: Q9UKT9 (peptide)
chain: FECPICGAHFTQKGNLLRHIKL
B5: Q9UKT9 (peptide)
chain: FECEQCGAYFTQKGNLLRHIKL
B6: Q9UKT9 (peptide)
chain: FLCEICGAFFTQKGNLLRHIKL
B7: Q9UKT9 (peptide)
chain: FNCPICGAVFTQKGNLLRHIKL
B8: Q9UKT9 (peptide)
chain: FVCPICGHMFTQKGNLLRHIKL
B9: Q9UKT9 (peptide)
chain: FQCPQCGAHFTQKGNLLRHIKL
B10: Q9UKT9 (peptide)
chain: FGCNQCGHRFTQKGNLLRHIKL
B11: Q9UKT9 (peptide)
chain: FVCNQCGHDFTQKGNLLRHIKL
B12: Q9UKT9 (peptide)
chain: FSCSVCGHNFTQKGNLLRHIKL
B13: Q9UKT9 (peptide)
chain: FNCPQCGARFTQKGNLLRHIKL
B14: Q9UKT9 (peptide)
chain: FWCPICGRIFTQKGNLLRHIKL

Each sequence was assayed against no compound (DMSO) (assay: log2 fold change of degron read counts, EGFP-low vs EGFP+ sorted cells; higher = lower degron-EGFP level without compound (poor expression or instability)). Settings: compound: DMSO control; 18 h.
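Note: jurkat cells carrying a lentiviral library of mutant zinc finger degrons fused to EGFP plus mCherry, mCherry+ cells FACS sorted, degron abundance counted by next-generation sequencing.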

Row | Sequence | log2 fold change of degron read counts
1 | B1 | -0.0111
2 | B2 | -0.127
3 | B3 | -0.253
4 | B4 | -0.778
5 | B5 | -0.605
6 | B6 | -0.794
7 | B7 | 0.264
8 | B8 | -0.0473
9 | B9 | -0.615
10 | B10 | 0.951
11 | B11 | -1.62
12 | B12 | -1.31
13 | B13 | -0.0533
14 | B14 | 1.06
